Measurements reported in the supplement of paper PMC11060735.
Structures can show the parent of a compound that is named as a salt. In all, about 1,800 compounds went through this assay and about 50 (3%) showed activity. This is one part of the list.

System: mouse p16Ink4a+/- lung fibroblasts (INKBRITE, bleomycin-injured)
Assay: percentage of GFP+ (p16Ink4a+) fibroblasts among all cells in well; higher = less depletion of p16Ink4a+ cells, active = 20 or less
Details: 1 µM; 3 days
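Also: fibroblasts sorted 14 days after bleomycin, GFP+ and GFP− mixed 1:1 in 384-well plates (GFP− as in-well control), imaged after Hoechst and NucView530 staining, reference wells lacked compound.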

Structure (SMILES)	percentage of GFP+
Cc1cc(C)nc(NS(=O)(=O)c2ccc(N)cc2)n1 [Sulfamethazine]	inactive: 54.2%
Cn1c(=O)cc(N2CCC[C@@H](N)C2)n(Cc2cc(F)ccc2C#N)c1=O [Trelagliptin]	inactive: 44.1%
O=c1cc(-c2ccc(O)c(O)c2)oc2cc(O)cc(O)c12 [Luteolin]	inactive: 47.1%
CC(C)Oc1ccc(-c2cnc3c(-c4ccnc5ccccc45)cnn3c2)cc1	inactive: 43.3%
Cc1coc2c1C(=O)C(=O)c1c-2ccc2c(C)cccc12 [Tanshinone I]	inactive: 41.1%
CN(C)CCCCC(=O)Nc1ccc(NC(=S)NC(=O)c2ccc(C(C)(C)C)cc2)cc1 [Tenovin-6]	inactive: 43.9%
Cc1ccccc1C(=O)Nc1ccc(C(=O)N2CCCC(O)c3cc(Cl)ccc32)c(C)c1 (configuration not stated) [Tolvaptan]	inactive: 49.5%
NCCc1ccc(O)c(O)c1 [Dopamine]	inactive: 39.9%
C[C@H](CS)C(=O)N1CCC[C@H]1C(=O)O [Captopril]	inactive: 24.8%
CC1(COc2ccc3c(c2)ncn3-c2ccc3cccc(N4CCC(N)CC4)c3n2)COC1 [Crenolanib]	inactive: 38.5%
Cc1cc(Nc2ncnc3ccc(-c4ccc(CNCCS(C)(=O)=O)o4)cc23)ccc1Oc1ccn2ncnc2c1 [HER2-Inhibitor-1]	inactive: 47.4%
O=c1cc(N2CCOCC2)oc2c(-c3ccccc3)cccc12	inactive: 47.1%
Nc1c(CC(=O)O)cccc1C(=O)c1ccccc1 [Amfenac Sodium Monohydrate]	inactive: 59.6%
CC(=O)OCC(=O)[C@@]1(O)CC[C@H]2[C@@H]3CCC4=CC(=O)CC[C@]4(C)[C@H]3C(=O)C[C@@]21C [Cortisone acetate]	inactive: 47.3%
CCCCC1C(=O)N(c2ccccc2)N(c2ccccc2)C1=O [Phenylbutazone]	inactive: 35.5%
Cc1cc2c(cc1CC(=O)c1sccc1S(=O)(=O)Nc1onc(C)c1Cl)OCO2 [Sitaxentan]	inactive: 32.9%
Cc1ccc(C(=O)Cn2c3c(sc2=N)CCCC3)cc1 [Pifithrin]	inactive: 46.5%
Cc1c(Nc2ncccc2C(=O)O)cccc1C(F)(F)F [Flunixin Meglumine]	inactive: 46.2%
CCN1CCN(c2cc3c(cc2F)c(=O)c(C(=O)O)cn3C2CC2)CC1 [Enrofloxacin]	inactive: 42.9%
N=C(N)Nc1nc(CSCCC(=N)NS(N)(=O)=O)cs1 [Famotidine]	inactive: 37.9%
CCc1cc(Nc2nccc(-c3c(-c4ccc(OC)c(C(=O)Nc5c(F)cccc5F)c4)nc4ccccn34)n2)c(OC)cc1N1CCC(N2CCN(S(C)(=O)=O)CC2)CC1	inactive: 46.3%
CN(CCOc1ccc(CC2SC(=O)NC2=O)cc1)c1ccccn1 (configuration not stated) [Rosiglitazone, Rosiglitazone Maleate]	inactive: 38.5%
CC(C)(C)NC(=O)[C@H]1CC[C@H]2[C@@H]3CC[C@H]4NC(=O)C=C[C@]4(C)[C@H]3CC[C@]12C [Finasteride]	inactive: 43.5%
CC(C)[C@H](O)C(=O)N[C@@H](C)C(=O)N[C@@H]1C(=O)N(C)CCc2ccccc21 [Semagacestat]	inactive: 47.3%

Structure (SMILES)	percentage of GFP+
CC(C)(C)CC(C)(C)c1ccc(OCCOCC[N+](C)(C)Cc2ccccc2)cc1 [Benzethonium Chloride]	inactive: 46.8%
COc1ccc(CCC(=O)Nc2nc3ccc(Cl)cc3s2)cc1OC	inactive: 53.7%
COc1c(C)cnc(Cn2cnc3c(Cl)nc(N)nc32)c1C	active: 7.81%
CC(C)OC(=O)OCOP(=O)(CO[C@H](C)Cn1cnc2c(N)ncnc21)OCOC(=O)OC(C)C [Tenofovir Disoproxil]	inactive: 37.9%
Cc1cc(-c2ccc(CC(=O)Nc3ccc(-c4cccnc4)cc3)cc2)ccn1	inactive: 43.3%
O=c1oc2cc(O)ccc2s1 [Thioxolone, Tioxolone]	inactive: 41.9%
CC(=O)N1CCN(c2ccc(OC[C@H]3CO[C@](Cn4ccnc4)(c4ccc(Cl)cc4Cl)O3)cc2)CC1 [Ketoconazole]	inactive: 38.2%
Cc1ccc2c(=O)c3cccc(CC(=O)O)c3oc2c1C [Vadimezan]	inactive: 40.3%
CC(C)C[C@H](NC(=O)[C@H](Cc1ccccc1)NC(=O)c1cnccn1)B(O)O [Bortezomib]	active: 5.29%
N#CCNC(=O)c1ccc(-c2ccnc(Nc3ccc(N4CCOCC4)cc3)n2)cc1	inactive: 44.8%
CC12CC3CC(C)(C1)CC(N)(C3)C2 [Memantine]	inactive: 41.2%
Cc1cc(C)nc(NS(=O)(=O)c2ccc(NC(=S)NC(=O)COc3ccc(Br)cc3Cl)cc2)n1	inactive: 44.9%
CN(C)C1CCN(C(=O)c2ccc(NC(=O)Nc3ccc(-c4nc(N5CCOCC5)nc(N5CCOCC5)n4)cc3)cc2)CC1	inactive: 33%
CC(C)/N=c1\cc2n(-c3ccc(Cl)cc3)c3ccccc3[nH]c-2c\c1=N/c1ccc(Cl)cc1 [Clofazimine]	inactive: 40.5%
CCN(C(=O)c1c(O)c2c(Cl)cccc2n(C)c1=O)c1ccccc1 [Laquinimod]	inactive: 47.7%
Clc1ccc(C(Cn2ccnc2)OCc2csc3c(Cl)cccc23)c(Cl)c1 (configuration not stated) [Sertaconazole]	inactive: 48.2%
NC1(Cc2ccc(Cl)cc2)CCN(c2ncnc3[nH]ccc23)CC1	inactive: 51.9%
CCNC(=O)c1[nH]nc(-c2cc(Cl)c(O)cc2O)c1-c1ccc(OC)cc1	inactive: 36.1%
CCOC(=O)O[C@]1(C(=O)OCCl)CC[C@H]2[C@@H]3CCC4=CC(=O)C=C[C@]4(C)[C@H]3[C@@H](O)C[C@@]21C [Loteprednol etabonate]	inactive: 32.2%
c1ccc2[nH]c(-c3cscn3)nc2c1 [Thiabendazole]	inactive: 45.3%
O=C1[O][Pt]2(<-[NH2][C@@H]3CCCC[C@H]3[NH2]->2)[O]C1=O [Oxaliplatin]	inactive: 30.7%
Cn1c(=O)c2c(ncn2CC2OCCO2)n(C)c1=O [Doxofylline]	inactive: 41%
O=C(N[C@H](CO)[C@H](O)c1ccc([N+](=O)[O-])cc1)C(Cl)Cl [Chloramphenicol]	inactive: 47.6%
Nc1nc(NCCNc2ncc(-n3ccnc3)c(-c3ccc(Cl)cc3Cl)n2)ccc1[N+](=O)[O-]	inactive: 50.9%

Structure (SMILES)	percentage of GFP+
NNC(=O)c1ccncc1 [Isoniazid]	inactive: 42.3%
COc1ccc(-c2ccc3ncc4c(c3c2)n(-c2ccc(N3CCNCC3)c(C(F)(F)F)c2)c(=O)n4C)cn1	active: 10.6%
Nc1cccc2c1C(=O)N(C1CCC(=O)NC1=O)C2=O (configuration not stated) [Pomalidomide]	inactive: 46.7%
C[C@H](NC(=O)Cc1cc(F)cc(F)c1)C(=O)N[C@H](C(=O)OC(C)(C)C)c1ccccc1	inactive: 50.7%
C=CC(=O)Nc1ccc2ncnc(Nc3ccc(OCc4cccc(F)c4)c(Cl)c3)c2c1	inactive: 45.4%
C[C@H]1C[C@H]2[C@@H]3CCC4=CC(=O)C=C[C@]4(C)[C@H]3C(=O)C[C@]2(C)[C@@]1(O)C(=O)CO [Meprednisone]	inactive: 40.4%
CN(C)c1nc(N(C)C)nc(N(C)C)n1 [Altretamine]	inactive: 41.3%
Cc1cnc(Nc2ccc(N3CCN(C)CC3)cc2)nc1Nc1cccc(S(=O)(=O)NC(C)(C)C)c1	inactive: 39.4%
Cc1c(C(=O)Nc2ccc(N3C[C@@H](C)O[C@@H](C)C3)nc2)cccc1-c1ccc(OC(F)(F)F)cc1 [Sonidegib]	inactive: 42.4%
C[C@H](NC(=O)Cc1cc(F)cc(F)c1)C(=O)N[C@@H]1C(=O)N(C)c2ccccc2-c2ccccc21	inactive: 57.6%
Nc1cc(C(Cl)=C(Cl)Cl)c(S(N)(=O)=O)cc1S(N)(=O)=O [Clorsulon]	inactive: 40.5%
CC(C)(C)NS(=O)(=O)c1cncc(-c2cc(F)c3nc(N)nn3c2)c1	inactive: 49.8%
O=C(O)[C@H]1O[C@H](Oc2cc3oc(-c4ccccc4)cc(=O)c3c(O)c2O)[C@H](O)[C@@H](O)[C@@H]1O [Baicalin]	inactive: 36.7%
O=C1C(c2c(O)[nH]c3ccccc23)=Nc2ccccc21 [Indirubin]	inactive: 31.1%
COc1cc(O)c2c(c1)C(=O)c1cc(C)cc(O)c1C2=O [Physcion]	inactive: 41.3%
CCCCCCOC(=O)/N=C(\N)c1ccc(NCc2nc3cc(C(=O)N(CCC(=O)OCC)c4ccccn4)ccc3n2C)cc1 [Dabigatran etexilate]	inactive: 37.3%
CN1CCC(CNc2ccc3ncc(-c4cccc(OC(F)(F)F)c4)n3n2)CC1	inactive: 41.5%
C[C@H](C(=O)O)c1ccc(-c2ccccc2)c(F)c1 [Flurbiprofen]	inactive: 44.9%
CC#C[C@]1(O)CC[C@H]2[C@@H]3CCC4=CC(=O)CCC4=C3[C@@H](c3ccc(N(C)C)cc3)C[C@@]21C [Mifepristone]	inactive: 46.9%
N#CSc1cc(SC#N)c(N)nc1N	inactive: 38.2%
COC(=O)C1=C(C#N)N=C(C)/C(=C(\O)OC(C)C)C1c1cccc([N+](=O)[O-])c1 (configuration not stated) [Nilvadipine]	inactive: 51.6%
CN(C)CCc1c[nH]c2ccc(CS(=O)(=O)N3CCCC3)cc12 [Almotriptan]	inactive: 36.7%
Oc1ccnc(O)n1 [Uracil]	inactive: 46.8%
C/C1=C2/N[C@H]([C@H](CC(N)=O)[C@@]2(C)CCC(=O)NC[C@@H](C)OP(=O)(O)O[C@H]2[C@@H](O)[C@@H](n3cnc4cc(C)c(C)cc43)O[C@@H]2CO)[C@]2(C)N=C(/C(C)=C3N=C(/C=C4N=C1[C@@H](CCC(N)=O)C\4(C)C)[C@@H](CCC(N)=O)[C@]\3(C)CC(N)=O)[C@@H](CCC(N)=O)[C@]2(C)CC(N)=O [Vitamin B12]	inactive: 52.5%
